Experimental data as given in the antibiotic and cytotoxicity screens of Wong et al. (2023).
This is one part of the list.

What follows are compounds tested on HepG2 (assay: cytotoxicity call (relative viability < 0.9)). Details: 10 µM.

Row | Structure (SMILES) | cytotoxicity call
1 | C[C@H]1CN([C@@H](C)CO)C(=O)c2cc(NS(C)(=O)=O)ccc2O[C@H]1CN(C)S(=O)(=O)c1cccs1 | inactive
2 | C[C@@H]1CCCCO[C@@H](CN(C)Cc2ccccc2)[C@H](C)CN([C@H](C)CO)C(=O)c2cc(NC(=O)NC3CCCCC3)ccc2O1 | inactive
3 | Cc1ccc(S(=O)(=O)Nc2ccc3c(c2)C(=O)N([C@H](C)CO)C[C@@H](C)[C@H](CN(C)C(=O)Nc2cccc4ccccc24)OCCCC[C@H](C)O3)cc1 | active
4 | N=C(N)SCCN1C(=O)c2ccccc2C1=O | inactive
5 | C[C@H]1CN([C@@H](C)CO)C(=O)Cc2cc(NS(=O)(=O)c3ccccc3)ccc2O[C@H]1CN(C)S(=O)(=O)c1ccc(F)cc1 | inactive
6 | C[C@H](CO)N1C[C@H](C)[C@@H](CN(C)C(=O)Nc2ccccc2)OCCCC[C@H](C)Oc2ccc(NC(=O)CCC(F)(F)F)cc2C1=O | inactive
7 | Cc1ccc(S(=O)(=O)Nc2ccc3c(c2)CC(=O)N([C@@H](C)CO)C[C@H](C)[C@@H](CN(C)S(=O)(=O)c2ccc(F)cc2)O3)cc1 | inactive
8 | Cc1ccc(S(=O)(=O)Nc2ccc3c(c2)C(=O)N([C@H](C)CO)C[C@@H](C)[C@H](CN(C)S(=O)(=O)c2ccc(F)cc2)OCCCC[C@@H](C)O3)cc1 | inactive
9 | C[C@@H]1CN([C@@H](C)CO)C(=O)c2cc(NS(C)(=O)=O)ccc2O[C@@H]1CN(C)C(=O)Nc1ccc2c(c1)OCO2 | inactive
10 | C[C@H]1CN([C@@H](C)CO)C(=O)c2cc(NS(=O)(=O)c3cn(C)cn3)ccc2O[C@@H]1CN(C)CC1CC1 | inactive
11 | C=CCN1C(=O)[C@@]2(O[C@@H](CCO)[C@H]([Si](C)(C)c3ccc(OC)cc3)[C@H]2C)c2cc(N3C(=O)c4cccc5cccc3c45)ccc21 | active
12 | C[C@H]1CN([C@@H](C)CO)C(=O)Cc2cc(NC(=O)c3ccncc3)ccc2O[C@@H]1CN(C)S(=O)(=O)c1ccccc1 | inactive
13 | CO[C@H](C(=O)N(C)C[C@@H]1OCc2ccccc2-c2c(n(C)c3ccccc23)C(=O)N([C@H](C)CO)C[C@H]1C)c1ccccc1 | inactive
14 | C[C@@H]1CN([C@H](C)CO)C(=O)c2cccc(NC(=O)C3CC3)c2O[C@H]1CN(C)C(=O)NC1CCCCC1 | inactive
15 | C[C@@H]1CN([C@H](C)CO)C(=O)c2cccc(NC(=O)c3ccncc3)c2O[C@H]1CN(C)S(=O)(=O)c1cn(C)cn1 | inactive
16 | CC(C)NC(=O)N(C)C[C@H]1OCCCC[C@H](C)Oc2ccc(NS(=O)(=O)c3cn(C)cn3)cc2C(=O)N([C@@H](C)CO)C[C@H]1C | inactive
17 | COc1ccc(CN(C)C[C@@H]2Oc3ccc(NS(=O)(=O)c4c(C)noc4C)cc3C(=O)N([C@H](C)CO)C[C@H]2C)cc1 | inactive
18 | CNC(=O)C[C@H]1CC[C@@H]2[C@H](COC[C@@H](O)CN2C(=O)c2ccc3c(c2)OCO3)O1 | active
19 | O=C(C[C@@H]1C=C[C@H](NC(=O)C2CC2)[C@H](CO)O1)NCCCN1CCOCC1 | inactive
20 | Cc1noc(C)c1NC(=O)Nc1ccc2c(c1)C(=O)N([C@H](C)CO)C[C@@H](C)[C@@H](CN(C)S(=O)(=O)c1ccccc1)OCCCC[C@H](C)O2 | inactive
21 | COc1ccc(CN(C)C[C@H]2Oc3c(NC(=O)CCCCCC(=O)Nc4ccccc4N)cccc3C(=O)N([C@@H](C)CO)C[C@@H]2C)cc1 | active
22 | C[C@@H]1CN([C@H](C)CO)S(=O)(=O)c2ccc(C#CC3(O)CCCC3)cc2O[C@H]1CN(C)C(=O)c1ccccc1 | inactive
23 | C[C@H]1CN([C@@H](C)CO)C(=O)c2cccc(NC(=O)Nc3ccccc3)c2O[C@@H]1CN(C)Cc1ccc(C(=O)Nc2ccccc2N)cc1 | inactive
24 | C[C@H]1CN([C@@H](C)CO)C(=O)c2cc(NC(=O)Cn3cnnn3)ccc2O[C@@H]1CN(C)Cc1ccc2c(c1)OCO2 | inactive
25 | O=C(C[C@H]1CC[C@H](NC(=O)CN2CCOCC2)[C@H](CO)O1)NCc1cccc(F)c1 | inactive
26 | C[C@@H]1CN([C@H](C)CO)C(=O)c2cc(NC(=O)CCC(F)(F)F)ccc2O[C@@H](C)CCCCO[C@@H]1CN(C)Cc1ccc(C(=O)O)cc1 | inactive
27 | C[C@H]1CN([C@@H](C)CO)C(=O)Cc2cc(NC(=O)Nc3ccc4c(c3)OCO4)ccc2O[C@H]1CN(C)Cc1ccc(-c2ccccc2)cc1 | inactive
28 | CN1CCN(C(=O)C[C@H]2CC[C@@H](NC(=O)Cc3ccccn3)[C@@H](CO)O2)CC1 | inactive
